Experimental data taken from the supplement of paper PMC11417369.
Some of the results follow.

Tested on: PfAP2-HC AP2 domain (GST-tagged)
Assay: gcPBM binding intensity (ln(normalized median fluorescence intensity)); higher = stronger DNA binding
Summary of the method: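 After 1 h on an Agilent 4 × 180k array of primer-extended double-stranded 36-bp intergenic genomic probes and negative controls, bound GST-tagged P. falciparum DNA-binding domains were detected with Alexa488 anti-GST antibody and scanned at 488 nm. The domains had been expressed in E. coli, and binding took place in 1× PBS with 1% milk, 0.2 mg/ml BSA, 0.5% salmon testes DNA and 0.03% Triton X-100. Binding intensity is the highest Masliner-normalised natural-log median intensity across replicate spots of either probe orientation.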

Going from “TTCTGTGTCTAAAAATGTACGGGAATATATAAAAGT [XGTACX_site2090]” to “TGACTTTGTTGAATTTGTCCTCTTAACTCATAATAT [GTGCAC_negctrl_site217]”, the “gcPBM binding intensity (ln)” value falls from 9.56 to 9.55.

Compared with “ACATAATATATATATTAACACACATCCTTTTATGTA [CACACA_site8317]”, “TTTTTTTTTTTTAAATGTACTTATCAACTTTTATAT [XGTACX_site4641]” is lower in “gcPBM binding intensity (ln)” value: 9.86 for the first, 9.48 for the second.

Going from “ACTTATATTATAAATTGTACAAATATTATATTTGGT [XGTACX_site1424]” to “TTATTTTGTTTATTATGTACACAAAGACATAATAAT [XGTACX_site5648]”, the “gcPBM binding intensity (ln)” value falls from 9.7 to 9.53.

Compared with “CACTTACATAATTATTGTACAGATATTATCAAATAA [XGTACX_site567]”, “AATAAAATAATCCAAGTGCATATGTAAAAATACATT [GTGCAC_site9576]” is higher in “gcPBM binding intensity (ln)” value: 9.52 for the first, 9.81 for the second.

Compared with “AATATATGTAAATGGACACACACATATATATATATA [CACACA_site9220]”, “AAAAAAAAAAGACACACACACACACGCATATACATA [CACACA_site7289]” is higher in “gcPBM binding intensity (ln)” value: 9.95 for the first, 10.7 for the second.

First: ACGGACAATACGGAAACACACAAGTTATTTTATCAT [CACACA_site7310]
Second: TACGTAAAAATAATACGTACATATATTTATAGAAAA [XGTACX_site4959]
The “gcPBM binding intensity (ln)” value of the first is higher: 9.94 for the first, 9.71 for the second.

First: GAAATACCGGAAAGCAAACACACATTTTAAAACCAT [CACACA_site3861]
Second: ATATTTTTTGGAAAGTGTACAATATTATATATTAAA [XGTACX_site2163]
The “gcPBM binding intensity (ln)” value of the first is higher: 9.89 for the first, 9.45 for the second.

Going from “AACCATGTTAACAATGCATGCATCACTATATAAACG [TGCATGCA_site421]” to “ATACATATATATAGGTGTACATATAATATATATATA [XGTACX_site2228]”, the “gcPBM binding intensity (ln)” value rises from 9.66 to 9.72.

Going from “TTTAATTTTACATGAGAAACATATTACAATAAAATA [GTGCAC_negctrl_site606]” to “TCAAGTATTAAAATGGGTACATAAATATGTGTATAT [XGTACX_site5884]”, the “gcPBM binding intensity (ln)” value rises from 9.13 to 9.61.

Compared with “CATATAAAAAAATAGACACACATTTTATATAATACG [CACACA_site1896]”, “TATTTTTCTTTTTTTTTTTTTTTTATATTATACGTG [XGTACX_negctrl_site363]” is lower in “gcPBM binding intensity (ln)” value: 10 for the first, 9.53 for the second.

Compared with “CTTTTTAAATTAAAATGTACAGAAAAATATTATTAT [XGTACX_site8760]”, “ATCATATGTATGCATACACACAAAAAGTTATTTATA [CACACA_site6325]” is higher in “gcPBM binding intensity (ln)” value: 9.13 for the first, 9.78 for the second.

Compared with “GAAAATCAGTTAAACACACACATAAAAAAAAAAAAA [CACACA_site2875]”, “ATATATACTATATTTTAACACACAAAAAAAAAAAAT [CACACA_site8277]” is lower in “gcPBM binding intensity (ln)” value: 10.6 for the first, 9.78 for the second.

First: CTCAATATTATTACTACACACAAATTAATATTTTCC [CACACA_site55]
Second: CTTTTTTCAAGACACACACACAAGAAAATATAAATA [CACACA_site7455]
The “gcPBM binding intensity (ln)” value of the first is lower: 9.82 for the first, 10.1 for the second.

Compared with “TGTTAATTGAATGCAATCTGAATTTTTTTACATAAT [CACACA_negctrl_site1002]”, “CACCCACCCAGACACACACACACAAAAAAAAAAAGA [CACACA_site499]” is higher in “gcPBM binding intensity (ln)” value: 9.56 for the first, 11.2 for the second.

Compared with “TATTTGTAAATCGATACACACATATATCTTAATATA [CACACA_site4273]”, “TGGATAATGAATGATGCACACTAAAAATATTCTACA [CACACA_site5912]” is higher in “gcPBM binding intensity (ln)” value: 9.68 for the first, 9.78 for the second.

Going from “CGGCACGTGATATATACACACATATAGATATATACA [CACACA_site6408]” to “ATATATATAACATATACACACGTTCATATATATATA [CACACA_site4416]”, the “gcPBM binding intensity (ln)” value rises from 9.79 to 9.88.

Going from “TAATTTTTATTTTATTTTATTTTTTTTTTTTTTATT [CACACA_negctrl_site1671]” to “TTACAAGTAAAAGGTACACACATTATATATACAAAT [CACACA_site8290]”, the “gcPBM binding intensity (ln)” value rises from 9.49 to 10.

First: TCACATGGAAAAAAGTGTACATAATTATGTATAAAT [XGTACX_site2827]
Second: TATAAAAAATAAAAAGTTTAATGAATATTTCTTTTA [TGCATGCA_negctrl_site379]
The “gcPBM binding intensity (ln)” value of the first is higher: 9.8 for the first, 9.41 for the second.

Compared with “AAAAAAAAAAAAATCACACACAATATGAATTTATAG [CACACA_site601]”, “AATACAATTTCTAGCACACAAAATATTATTATAATT [CACACA_site3223]” is lower in “gcPBM binding intensity (ln)” value: 10.1 for the first, 9.92 for the second.

Going from “TATAGAAGCGTTCACACACACACATACATACCCATA [CACACA_site4915]” to “AAAAAACAATCTCATACACACTAGGGATTAATTATT [CACACA_site5051]”, the “gcPBM binding intensity (ln)” value falls from 11.1 to 9.87.

First: TCCCTAAAAAATGATAAATGGAGACAATTCCGACAA [GTGCAC_negctrl_site209]
Second: TTATATATATTTAAATTTTATCTCACATATATATAT [TGCATGCA_negctrl_site275]
The “gcPBM binding intensity (ln)” value of the first is lower: 9.44 for the first, 9.83 for the second.

Going from “ATGGATAACAATATGTGTACACATTTATATCTCCAC [XGTACX_site5457]” to “AAGCATGGATATTTTACACACATTTCCACGTAACAA [CACACA_site3141]”, the “gcPBM binding intensity (ln)” value rises from 9.85 to 9.91.
